The record followed here is the supplement of paper PMC11369174, “Proteome-scale characterisation of motif-based interactome rewiring by disease mutations” (Molecular Systems Biology, 2024).

Some of the results follow. The data scatter; read single values as rough.

Common to all, as to test: mutation enrichment score (mutant vs wild-type peptide binding to bait); baits are purified protein domains named by gene / domain / UniProt id / residues; peptides come from disordered regions of human proteins; higher = mutation enhances binding relative to wild type
In one test the target is T1, EPS15_EH__P42566_121_215.
T1 chain: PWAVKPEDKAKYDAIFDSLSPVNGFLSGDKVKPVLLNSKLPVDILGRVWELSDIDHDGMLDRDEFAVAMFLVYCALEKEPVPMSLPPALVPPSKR
The conditions noted are these: wild-type window: ….

Test [1] addresses T2, PEX14_Pex14__O75381_16_84.
T2 chain: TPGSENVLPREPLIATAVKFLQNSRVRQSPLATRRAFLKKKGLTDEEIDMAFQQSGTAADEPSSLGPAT
The conditions noted are these: number of wild-type / mutant comparisons summed (bounds the score): 12; paper call: enhanced; wild-type window: ….

The target of test [2] is PTBP1_RRM_2_P26599_157_285. The conditions noted are these: number of wild-type / mutant comparisons summed (bounds the score): 6; paper call: no_effect; wild-type window: ….
In test [3] the target is T3, SIN3A_PAH__Q96ST3_295_383.
T3 chain: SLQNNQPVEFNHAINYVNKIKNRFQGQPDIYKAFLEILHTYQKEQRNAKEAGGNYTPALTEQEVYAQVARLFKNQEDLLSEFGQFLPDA
The conditions noted are these: number of wild-type / mutant comparisons summed (bounds the score): 10; paper call: enhanced; wild-type window: ….

The target of test [4] is T4, EPHB2_Pkinase__P29323_604_898.
T4 chain: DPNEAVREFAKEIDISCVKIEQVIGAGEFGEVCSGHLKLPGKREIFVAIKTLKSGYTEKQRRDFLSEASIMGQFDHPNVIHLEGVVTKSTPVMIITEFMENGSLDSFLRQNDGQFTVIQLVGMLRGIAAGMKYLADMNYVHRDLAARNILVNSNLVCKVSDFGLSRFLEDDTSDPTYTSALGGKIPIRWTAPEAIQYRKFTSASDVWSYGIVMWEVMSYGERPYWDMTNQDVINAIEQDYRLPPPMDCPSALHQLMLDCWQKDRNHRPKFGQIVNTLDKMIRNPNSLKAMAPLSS
The conditions noted are these: paper call: no_effect, wild-type window: ….

Test [5] deals with Intersectin-1_SH3_2_Q15811_913_971. The conditions noted are these: number of wild-type / mutant comparisons summed (bounds the score): 6; paper call: no_effect; wild-type window: ….
For test [6], the target named is PDCD6IP_Bro__Q8WUM4_1_359. The conditions noted are these: number of wild-type / mutant comparisons summed (bounds the score): 5; paper call: no_effect; wild-type window: ….
The target in test [7] is RUNX1T1-MYND___Q06455_510_559. The conditions noted are these: number of wild-type / mutant comparisons summed (bounds the score): 12; paper call: no_effect; wild-type window: ….
The target in test [8] is T5, EPHA3_Pkinase__P29320_606_947.
T5 chain: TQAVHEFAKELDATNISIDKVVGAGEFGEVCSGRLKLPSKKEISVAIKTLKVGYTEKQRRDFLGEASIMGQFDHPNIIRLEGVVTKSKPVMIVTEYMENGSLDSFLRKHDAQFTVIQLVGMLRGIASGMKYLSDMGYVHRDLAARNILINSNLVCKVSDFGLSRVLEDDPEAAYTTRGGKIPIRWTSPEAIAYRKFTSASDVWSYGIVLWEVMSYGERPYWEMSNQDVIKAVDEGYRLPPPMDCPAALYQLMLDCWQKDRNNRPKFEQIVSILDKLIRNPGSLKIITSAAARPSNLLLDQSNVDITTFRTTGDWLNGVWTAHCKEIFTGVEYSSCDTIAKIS
The conditions noted are these: number of wild-type / mutant comparisons summed (bounds the score): 6; paper call: no_effect; wild-type window: ….

The target of a further test is T6, SPOP_MATH__O43791_19_176.
T6 chain: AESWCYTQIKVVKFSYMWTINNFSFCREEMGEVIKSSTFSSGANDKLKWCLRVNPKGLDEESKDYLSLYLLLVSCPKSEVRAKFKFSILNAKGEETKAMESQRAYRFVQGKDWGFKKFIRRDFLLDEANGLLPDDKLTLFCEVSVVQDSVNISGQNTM
The conditions noted are these: number of wild-type / mutant comparisons summed (bounds the score): 6; paper call: no_effect; wild-type window: ….

In test [9] the target is EPS8_SH3_1_Q12929_534_598 (clone: EPS8L1_SH3_1_Q12929_534_598). The conditions noted are these: number of wild-type / mutant comparisons summed (bounds the score): 6; paper call: no_effect; wild-type window: ….
The next test deals with REPS1___Q96D71_226_314. The conditions noted are these: number of wild-type / mutant comparisons summed (bounds the score): 6; paper call: no_effect; wild-type window: ….
The next test concerns the target EZR_FERM_1_P15311_2_295. The conditions noted are these: number of wild-type / mutant comparisons summed (bounds the score): 5; paper call: no_effect; wild-type window: ….
The target in another test is T7, MSN_FERM_1_P26038_1_322.
T7 chain: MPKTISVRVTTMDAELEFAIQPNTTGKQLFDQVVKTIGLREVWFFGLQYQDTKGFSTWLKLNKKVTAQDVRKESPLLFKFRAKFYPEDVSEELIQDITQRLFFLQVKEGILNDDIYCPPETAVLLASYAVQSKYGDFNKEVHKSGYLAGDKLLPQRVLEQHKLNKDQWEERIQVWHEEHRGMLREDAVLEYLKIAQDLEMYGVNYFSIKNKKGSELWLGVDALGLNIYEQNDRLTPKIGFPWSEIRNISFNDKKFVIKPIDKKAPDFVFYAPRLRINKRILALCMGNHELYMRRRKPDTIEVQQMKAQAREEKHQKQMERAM
The conditions noted are these: number of wild-type / mutant comparisons summed (bounds the score): 6; paper call: no_effect; wild-type window: ….

Another test deals with T8, RDX_FERM_1_P35241_5_295.
T8 chain: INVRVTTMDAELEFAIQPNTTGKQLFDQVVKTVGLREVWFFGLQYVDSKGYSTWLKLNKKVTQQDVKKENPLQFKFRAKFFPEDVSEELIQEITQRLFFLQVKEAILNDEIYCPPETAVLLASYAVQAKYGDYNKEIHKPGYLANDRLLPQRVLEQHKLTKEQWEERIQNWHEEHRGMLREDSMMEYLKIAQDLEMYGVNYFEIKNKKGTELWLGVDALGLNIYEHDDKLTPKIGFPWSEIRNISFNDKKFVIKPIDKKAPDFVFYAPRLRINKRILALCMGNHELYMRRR
The conditions noted are these: number of wild-type / mutant comparisons summed (bounds the score): 6; paper call: no_effect; wild-type window: ….

[10] abbreviates: number of wild-type / mutant comparisons summed (bounds the score): 6, paper call: enhanced.
[11] abbreviates: number of wild-type / mutant comparisons summed (bounds the score): 6.
Setting [12] is: number of wild-type / mutant comparisons summed (bounds the score): 12.

Chain of EZR_FERM_1_P15311_2_295 (chain, as listed by the source): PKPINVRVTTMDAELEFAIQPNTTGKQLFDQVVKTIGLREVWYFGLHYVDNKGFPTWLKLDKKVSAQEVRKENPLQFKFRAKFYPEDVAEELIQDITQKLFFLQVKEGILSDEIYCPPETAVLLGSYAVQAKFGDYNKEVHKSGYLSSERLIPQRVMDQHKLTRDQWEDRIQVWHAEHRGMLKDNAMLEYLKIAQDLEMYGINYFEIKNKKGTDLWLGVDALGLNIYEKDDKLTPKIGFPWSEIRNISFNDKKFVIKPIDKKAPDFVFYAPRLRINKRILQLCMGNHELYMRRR

With RGPRQNSRLGLPLLLMPEEAWLLAEIGAVTLVSAPRPDSRH [R58W R58W], the mutation enrichment score with EPS15_EH__P42566_121_215 (setting [10]) was 6; in test [1], 12; in test [2], -3; in test [3], 6.

In the case of AEKGENDHFDTYADALWWGLNTLTTIGYGDKYPQTWNGRLL [I273N I273N], in test [4] (setting [11]), the mutation enrichment score is -1.

Take AEKGENDHFDTYADALWWGLMTLTTIGYGDKYPQTWNGRLL [I273M I273M]: the mutation enrichment score is -1 in test [4] (setting [12]), 0 in test [5] and 2 in test [6].

Consider FDTYADALWWGLITLTTIGYEDKYPQTWNGRLLAATFTLIG [G281E G281E], for which the mutation enrichment score in test [4] (setting [11]) is -1.

With FDTYADALWWGLITLTTIGYWDKYPQTWNGRLLAATFTLIG [G281W G281W], the mutation enrichment score in [4] (setting [11]) is -1.

Turning to FDTYADALWWGLITLTTIGYRDKYPQTWNGRLLAATFTLIG [G281R G281R], the mutation enrichment score in [4] (setting [11]) is -1.

For ENDHFDTYADALWWGLITLTSIGYGDKYPQTWNGRLLAATF [T277S T277S], the mutation enrichment score in [4] (setting [11]) was -1.

As for MVSKLSQLQTELLAALLESGHSKEALIQALGE [L12H L12H], the values for the mutation enrichment score in test [4] (setting [12]) and in [7] were 3 and 1, respectively.

Regarding KSLRQRRAQASYAGPPPTVAKLVEAHTNFGFQPDTAPRSPN [E580K E580K], the mutation enrichment score in test [8] was 1.1; in the test with SPOP_MATH__O43791_19_176, -3.7.

SPKESENALPIQVDYDAYDAEVFRLPGPSRAQCLTTCRSVR [Q465E Q465E]: the mutation enrichment score in test [9] stood at 3.

RPTGNTSWLMSLENPLSPFSLDINNMPLQELSNALMAAERF [S1221L S1221L]: the mutation enrichment score in the test with EPS15_EH__P42566_121_215 (number of wild-type / mutant comparisons summed (bounds the score): 12, paper call: enhanced) amounted to 3.6.

Turning to QEQAELDGTSGLAELDPEPTKPFQPIASVIIENEGKLEREK [N255K N255K], the mutation enrichment score in the test with EPS15_EH__P42566_121_215 (number of wild-type / mutant comparisons summed (bounds the score): 18, paper call: diminished) was -8; with REPS1___Q96D71_226_314 it was -4.

SEKAKNGRDTSLGSPKESENVLPIQVDYDAYDAQVFRLPGP [A452V A452V]: the mutation enrichment score in test [9] is 3.

Turning to KVIQAGMFDQKSSSHERRAFPQAILEHEEENEEEDEVPDDE [L1217P L1217P], the mutation enrichment score in the test with EPS15_EH__P42566_121_215 (number of wild-type / mutant comparisons summed (bounds the score): 6, paper call: no_effect) was -4.

Take DTYADALWWGLITLTTIGYGHKYPQTWNGRLLAATFTLIGV [D282H D282H]: the mutation enrichment score in test [4] (setting [11]) was -1.

DTYADALWWGLITLTTIGYGNKYPQTWNGRLLAATFTLIGV [D282N D282N]: the mutation enrichment score in test [4] (setting [11]) is -1.

Consider FLVYLAEKGENDHFDTYADAFWWGLITLTTIGYGDKYPQTW [L268F L268F], for which the mutation enrichment score in [4] (setting [11]) was -1; in test [6] it was 3.

Take FLVYLAEKGENDHFDTYADAPWWGLITLTTIGYGDKYPQTW [L268P L268P]: the mutation enrichment score in [4] (setting [11]) was -1.

PGGYNALRRMYTDIQEPMLNVAQEQFGGNPFASVGSSSSSG [A282V A282V]: the mutation enrichment score in the test with EPS15_EH__P42566_121_215 (setting [10]) stood at 6.

Regarding YIHQWEEIFHMTYDLASAVVTIFNLIGMMLLLCHWDGCLQF [R297T R297T], the mutation enrichment score was found to be 3.5 in the test with EZR_FERM_1_P15311_2_295, 5.1 with MSN_FERM_1_P26038_1_322 and 2.7 with RDX_FERM_1_P35241_5_295.

In the case of NDHFDTYADALWWGLITLTTTGYGDKYPQTWNGRLLAATFT [I278T I278T], the mutation enrichment score in test [4] (setting [11]) is -1.
